Measurements published in PubChem BioAssay AID624417 (National Center for Advancing Translational Sciences (NCATS), 2012).
About 6,400 (1.6%) of roughly 410,000 compounds were called active. The inconclusive results got no clear call from the source; some entries with a clear call stand among them for comparison. Calls come from the whole dose curve; as a rule, active = well fitted inhibition curve with a large enough effect; inconclusive = small, poorly fitted or top-dose-only effect; inactive = no such curve, though single readings can be large or run the other way. Potencies beside an inconclusive call are fits to weak or partial responses and may not hold up.

Biological target: Glucagon-like peptide 1 receptor (Homo sapiens) (UniProt P43220)
Assay: qHTS of GLP-1 Receptor Inverse Agonists (Inhibition Mode); note: nearly all actives have a fitted effect of over 55% in size
Conditions: HEK293 GLP-1R CRE-luciferase, luminescence, 24 h, GLP-1R form is constitutively active; activity change, negative = inhibition: at 38.3 µM (top of the series) unless noted
Procedure, shortened: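 HEK293 cells stably co-expressing a cAMP-responsive luciferase reporter and constitutively active GLP-1R were seeded, incubated 12 h, then exposed to compounds for 24 h at 37 C. Luminescence was read 12 min after detection reagent; inverse agonists lower signal.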
% is set by controls: 0 for no effect and ±100 for the full control effect; potency is the fitted concentration of half-maximal effect; tags give direction and shape of the fitted curve.

UniProt P43220, sequence (P43220 whole entry, looked up): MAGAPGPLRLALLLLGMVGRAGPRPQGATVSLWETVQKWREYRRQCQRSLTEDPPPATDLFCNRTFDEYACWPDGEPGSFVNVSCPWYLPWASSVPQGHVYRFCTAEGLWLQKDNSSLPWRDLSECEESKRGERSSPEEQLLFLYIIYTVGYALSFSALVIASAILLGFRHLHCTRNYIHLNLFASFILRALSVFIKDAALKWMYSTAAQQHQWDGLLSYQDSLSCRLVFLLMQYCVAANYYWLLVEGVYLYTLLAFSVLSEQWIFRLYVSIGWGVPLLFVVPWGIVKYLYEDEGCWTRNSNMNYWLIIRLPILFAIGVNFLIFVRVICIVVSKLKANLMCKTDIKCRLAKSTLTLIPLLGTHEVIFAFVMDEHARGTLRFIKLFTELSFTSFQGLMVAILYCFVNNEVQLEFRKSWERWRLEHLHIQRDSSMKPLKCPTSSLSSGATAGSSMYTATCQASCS

Potency, active:
CCN(C(=O)c1cnc(N2CCN(c3ncccn3)CC2)c2ccccc12)c1cccc(Cl)c1 10 µM
CCOC(=O)c1cc(-c2ccccc2)n(CCC(=O)Nc2ccc(C(F)(F)F)cc2)c1C 7.08 µM
N#CCSc1nc2c(c(=O)n1Cc1ccccc1)C1(CCCC1)Cc1ccccc1-2 3.98 µM

Potency, inconclusive:
CCCCc1c(-c2ccccc2OC)ncn1C1CCCC1 11.2 µM [inhibitor, partial curve, poor fit]
COc1ccc(-n2nnnc2-c2cccc(OC)c2)cc1 1.26 µM [inhibitor, full curve, poor fit]
CCN(CC)CCNc1ncnc2c1cnn2-c1cc(Cl)ccc1C 28.2 µM [inhibitor, single point]
CN(c1ccccc1)S(=O)(=O)c1ccc(C(=O)NCc2ccc(F)cc2)cc1 5.62 µM [inhibitor, full curve, poor fit]
CCCCC(CC)C(=O)Nc1cccc(SC)c1 (stereo not drawn) 31.6 µM [inhibitor, single point]
O=C(Cc1cccs1)Nc1nc(-c2ccc(F)cc2F)cs1 31.6 µM [inhibitor, single point]
COC(=O)c1c(C(=O)OC)n(CCCN)c2ccc(C)cc12 28.2 µM [inhibitor, single point]
CCC(COC)NCc1cn(-c2ccc(F)cc2F)nc1-c1ccccc1C (stereo not drawn) 22.4 µM [inhibitor, single point]
Cc1ccccc1OCc1nc2ccccc2c(=O)n1/N=C/c1c[nH]c2ccccc12 3.16 µM [inhibitor, full curve, poor fit]
O=C(NCCN1C(=O)S/C(=C\c2ccc(OC(F)F)cc2)C1=O)C1=COCCO1 3.55 µM [inhibitor, full curve]
COc1cccc(NC(=O)c2ccc(C(=O)c3ccccc3)o2)c1 10 µM [inhibitor, partial curve, poor fit]
CCOC(=O)C1=C(N)Oc2ccc3ccccc3c2C1c1cccc(O)c1 (stereo not drawn) 11.2 µM [inhibitor, partial curve, poor fit]
COc1ccc(CNC(=O)COc2ccc(C(=O)c3ccc(F)cc3)cc2)cc1 1.78 µM [inhibitor, full curve, poor fit]
CCC1CCCCN1C(=O)COC(=O)c1cc(Br)ccc1Cl (stereo not drawn) 11.2 µM [inhibitor, partial curve, poor fit]
CN(Cc1ccccc1)C(=O)Cn1cccc1C(=O)c1ccccc1 8.91 µM [inhibitor, single point]
O=C(NCCCSc1ccccc1)c1cc(Br)ccc1O 11.2 µM [inhibitor, partial curve, poor fit]
CCOC(=O)C1CCN(Cc2ccc(-c3ccccc3)cc2)CC1 10 µM [inhibitor, single point]
CCOC(=O)c1c(C)n(C)c2ccc(OCC(O)CNC(CC)CO)cc12 (stereo not drawn) 6.31 µM [inhibitor, partial curve, poor fit]
Cc1cccc(NC(=O)NNC(=O)CCc2ccccc2)c1 10 µM [inhibitor, partial curve, poor fit]
CC(C)(C)C(=O)Nc1c(Br)c(C2CC2)nn1-c1ccccc1 20 µM [inhibitor, single point]
CCc1ccc(CN(C)C(=O)c2cc(COc3cc(C)c(Cl)c(C)c3)on2)nc1 10 µM [inhibitor, partial curve, poor fit]
COc1ccc(OC)c(NC(=O)Nc2ccc3c(c2)CCC3)c1 11.2 µM [inhibitor, partial curve, poor fit]
CCOC(=O)C1CCN(C2=C(NS(=O)(=O)c3ccc(Br)cc3)C(=O)c3ccccc3C2=O)CC1 12.6 µM [inhibitor, partial curve, poor fit]
Clc1ccccc1Cn1cccc1C1=NC(Cc2ccccc2)CO1 (stereo not drawn) 10 µM [inhibitor, partial curve, poor fit]
CCC(C)(C)C(=O)Nc1ncc(S(=O)(=O)c2ccc([N+](=O)[O-])cc2)s1 28.2 µM [inhibitor, single point]
CCCCN1C(=O)C2ON(c3ccccc3C)C(c3ccco3)C2C1=O (stereo not drawn) 28.2 µM [inhibitor, single point]
COc1ccc(N(Cc2cc3cc(OC)ccc3[nH]c2=O)S(=O)(=O)c2ccc(NC(C)=O)cc2)cc1 1 µM [inhibitor, full curve, poor fit]
COc1ccc(OC)c(NC(=O)CCN2CCN(c3ccccc3F)CC2)c1 7.08 µM [inhibitor, partial curve]
CC(C)c1ccc2nc(NC(=O)C3CC3)sc2c1 28.2 µM [inhibitor, single point]
COCCN(Cc1ccccc1)C(=O)c1cc(S(=O)(=O)N2CCCCCC2)ccc1OC 10 µM [inhibitor, partial curve, poor fit]
O=C(NCCn1cc(SCc2cccc(F)c2)c2ccccc21)c1cccc(C(F)(F)F)c1 12.6 µM [inhibitor, single point]
Cc1nn2c(NCCCn3ccnc3)cc(C(C)C)nc2c1-c1ccccc1 11.2 µM [inhibitor, partial curve, poor fit]
Cc1ccc(N(Cc2cccs2)C(=O)c2ccccc2)cc1 28.2 µM [inhibitor, single point]
CC(C)OC(=O)c1cc(NC(=S)Nc2ccc([N+](=O)[O-])cc2)cc(C(=O)OC(C)C)c1 28.2 µM [inhibitor, single point]
Cc1cccc(NC(=S)NC2CC3CCCC(C2)N3Cc2cccs2)c1C (stereo not drawn) 28.2 µM [inhibitor, single point]
CC1CCCCN1C(=O)CSc1nnc(-c2ccco2)o1 (stereo not drawn) 28.2 µM [inhibitor, single point]
CN(c1ncnc2c1c(-c1ccccc1)cn2-c1ccc(F)cc1)C1CCCCC1 11.2 µM [inhibitor, partial curve]
O=C(Nc1ccnn1C1CCN(C/C=C/c2ccccc2)CC1)C1CCCC1 28.2 µM [inhibitor, partial curve, poor fit]
Cc1cc2occ(CC(=O)N(C)CC(=O)Nc3ccc(F)cc3)c2cc1C 0.501 µM [inhibitor, full curve, poor fit]
Cc1ccc(N(CC(=O)NCc2ccc3c(c2)OCO3)S(=O)(=O)c2c(C)noc2C)cc1 10 µM [inhibitor, partial curve, poor fit]
Fc1ccc(-c2nc(-c3cccs3)c(-c3cccs3)[nH]2)cc1 10 µM [inhibitor, partial curve, poor fit]
COc1cccc(-c2csc(N3CCN(C(=S)Nc4cccc(C)c4)CC3)n2)c1 11.2 µM [inhibitor, partial curve, poor fit]
Cc1cccc(NC(=O)c2cc3c(=O)n(Cc4ccco4)ccc3nc2C)c1 12.6 µM [inhibitor, single point]
OC(CNCc1ccc(Cl)c(Cl)c1)c1ccccc1 (stereo not drawn) 28.2 µM [inhibitor, single point]
C=CCNC(=O)C(C#N)c1nc2ccccc2nc1N1CCCCCC1 (stereo not drawn) 22.4 µM [inhibitor, single point]
COc1ccc(C2CCc3cc4c(cc3C2=NOC(C)=O)OCO4)cc1OC (stereo not drawn) 11.2 µM [inhibitor, partial curve, poor fit]
COC(=O)c1ccccc1NC(=O)Nc1ccc(C(=O)N2CCCC2)cc1 15.8 µM [inhibitor, single point]
CC(C)(CNC(=O)COc1ccccc1Cc1ccccc1)N1CCOCC1 10 µM [inhibitor, partial curve, poor fit]
Cc1cc(C)cc(NC(=O)CN2C(=O)COc3ccc(S(=O)(=O)N4CCCC4)cc32)c1 4.47 µM [inhibitor, partial curve]
Cc1cc(C)c(-c2csc(NC(=O)C3=COCCO3)n2)c(C)c1 10 µM [inhibitor, partial curve, poor fit]
c1ccc2sc(NN=C3CCCC3)nc2c1 12.6 µM [inhibitor, single point]

Activity change, negative = inhibition, inactive:
CCCn1c(=N)n(CC(O)COc2cccc(C)c2)c2ccccc21 (stereo not drawn) -9.66%
Cc1ccc(C(=O)Nc2nc3nc(C)cc(=O)n3[nH]2)cc1 0.709%
CCOc1ccc(N2C(=O)C3C(c4ccccc4)=NN(c4ccccc4)C3C2=O)cc1 (stereo not drawn) 0%
CN(CCCN1CCOCC1)C(=O)c1cc(COc2ccc(F)cc2F)on1 -18.5%
Cn1c(SCC(N)=O)nc2c([nH]c3ccccc32)c1=O 2.85%
COCCn1c(-c2ccc(Cl)cc2Cl)nc2c(c(=O)c3ccccc3n2C)c1=O 9.07%
CCC(=O)N1CCc2cc(S(=O)(=O)CCC(=O)N3CCN(c4ccccc4Cl)CC3)ccc21 -3.36%
Cc1nn(-c2ccccc2)c2c1N(CC(=O)NCc1ccc(N(C)C)cc1)C(=O)CS2 -4.77%
O=C1CCCC/C1=C/Nc1cccc(C(F)(F)F)c1 7.55%
